Data from a compilation of properties of binary mixtures (doi:10.1021/je050387r).
The densities may have been worked out from excess volumes.

Assay: xn = mol fraction of the nth substance listed
Details: 101 kPa

O + CCCC[n+]1ccn(C)c1.F[B-](F)(F)F
x1 = 1
Details | mass density [kg/m3]
343.15 K | 977.8
353.15 K | 971.8

CCCC[n+]1ccn(C)c1.F[B-](F)(F)F + O
mass density [kg/m3]
Details | x2 = 0 | x2 = 0.1002 | x2 = 0.209 | x2 = 0.2984 | x2 = 0.4001 | x2 = 0.5014 | x2 = 0.6004 | x2 = 0.7 | x2 = 0.8 | x2 = 0.8999
303.15 K | – | – | – | 1188.1 | 1183.3 | 1176.2 | 1167 | 1154.8 | 1134.7 | –
308.15 K | 1195.4 | – | – | 1184.9 | 1180.1 | 1173.1 | 1163.8 | 1151.9 | 1131.9 | 1095.5
313.15 K | – | – | – | – | 1176.7 | – | – | 1148.7 | 1128.9 | 1091.9
318.15 K | 1189 | 1185.3 | 1181.9 | 1178 | 1173 | 1166.2 | – | 1144.8 | 1125 | 1089.9
323.15 K | 1186 | 1182.3 | – | – | – | 1162.8 | 1153.7 | 1141.4 | 1121.7 | –
333.15 K | 1179.8 | 1175.8 | 1172.4 | – | 1163 | 1155.5 | 1146.2 | 1133.1 | 1114.2 | –
343.15 K | 1173.5 | 1169.4 | 1165.8 | – | 1156.1 | 1148.7 | – | – | 1106.8 | –
353.15 K | 1167.4 | – | 1159.5 | 1155.3 | 1149.1 | 1141.7 | – | 1116.3 | 1098.1 | 1064.7
